# Reference: the supplement of paper PMC8728848
# The list shows a part of the results.
# Experiments:
# Test in all cases: glycan array binding signal (z-score within array); higher = stronger binding
# Conditions in all cases: glycan notation: IUPAC condensed, linker removed
# [1] = molecular target: Gal(b1-4)GlcNAc(b1-3)Gal(b1-4)GlcNAc(b1-3)Gal(b1-4)GlcNAc(b1-2)Man(a1-3)[Gal(b1-4)GlcNAc(b1-3)Gal(b1-4)GlcNAc(b1-3)Gal(b1-4)GlcNAc(b1-2)Man(a1-6)]Man(b1-4)GlcNAc(b1-4)GlcNAc
# Method in brief: (§1)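 Negative Z-scores can be read as non-binding. The Z-score is calculated within each array and then averaged across arrays of one protein sequence at different concentrations or buffers and across linkers. Arrays, 3228 in all, were curated from the Consortium for Functional Glycomics database and kept only where the protein sequence was available.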
# [2] = molecular target: Gal(b1-4)GlcNAc(b1-3)Gal(b1-4)GlcNAc(b1-3)Gal(b1-4)GlcNAc(b1-2)Man(a1-3)[Gal(b1-4)GlcNAc(b1-3)Gal(b1-4)GlcNAc(b1-3)Gal(b1-4)GlcNAc(b1-2)Man(a1-6)]Man(b1-4)GlcNAc(b1-4)[Fuc(a1-6)]GlcNAc
# Method in brief: as §1
# [3] = molecular target: Gal(b1-4)GlcNAc(b1-3)Gal(b1-4)GlcNAc(b1-3)Gal(b1-4)GlcNAc(b1-2)[Gal(b1-4)GlcNAc(b1-3)Gal(b1-4)GlcNAc(b1-3)Gal(b1-4)GlcNAc(b1-6)]Man(a1-6)[Gal(b1-4)GlcNAc(b1-3)Gal(b1-4)GlcNAc(b1-3)Gal(b1-4)GlcNAc(b1-2)Man(a1-3)]Man(b1-4)GlcNAc(b1-4)[Fuc(a1-6)]GlcNAc
# Method in brief: as §1
# [4] = molecular target: Gal(b1-4)GlcNAc(b1-3)Gal(b1-4)GlcNAc(b1-3)Gal(b1-4)GlcNAc(b1-3)Gal(b1-4)GlcNAc(b1-2)Man(a1-3)[Gal(b1-4)GlcNAc(b1-3)Gal(b1-4)GlcNAc(b1-3)Gal(b1-4)GlcNAc(b1-3)Gal(b1-4)GlcNAc(b1-2)Man(a1-6)]Man(b1-4)GlcNAc(b1-4)GlcNAc
# Method in brief: as §1
# [5] = molecular target: Gal(b1-4)GlcNAc(b1-3)Gal(b1-4)GlcNAc(b1-3)Gal(b1-4)GlcNAc(b1-3)Gal(b1-4)GlcNAc(b1-2)Man(a1-3)[Gal(b1-4)GlcNAc(b1-3)Gal(b1-4)GlcNAc(b1-3)Gal(b1-4)GlcNAc(b1-3)Gal(b1-4)GlcNAc(b1-2)Man(a1-6)]Man(b1-4)GlcNAc(b1-4)[Fuc(a1-6)]GlcNAc
# Method in brief: as §1
# [6] = molecular target: Gal(b1-4)GlcNAc(b1-3)Gal(b1-4)GlcNAc(b1-3)Gal(b1-4)GlcNAc(b1-3)Gal(b1-4)GlcNAc(b1-2)[Gal(b1-4)GlcNAc(b1-3)Gal(b1-4)GlcNAc(b1-3)Gal(b1-4)GlcNAc(b1-3)Gal(b1-4)GlcNAc(b1-6)]Man(a1-6)[Gal(b1-4)GlcNAc(b1-3)Gal(b1-4)GlcNAc(b1-3)Gal(b1-4)GlcNAc(b1-3)Gal(b1-4)GlcNAc(b1-2)Man(a1-3)]Man(b1-4)GlcNAc(b1-4)[Fuc(a1-6)]GlcNAc
# Method in brief: as §1
# [7] = molecular target: Gal(b1-4)GlcNAc(b1-3)Gal(b1-4)GlcNAc(b1-3)Gal(b1-4)GlcNAc(b1-3)Gal(b1-4)GlcNAc(b1-3)Gal(b1-4)GlcNAc(b1-2)Man(a1-3)[Gal(b1-4)GlcNAc(b1-3)Gal(b1-4)GlcNAc(b1-3)Gal(b1-4)GlcNAc(b1-3)Gal(b1-4)GlcNAc(b1-3)Gal(b1-4)GlcNAc(b1-2)Man(a1-6)]Man(b1-4)GlcNAc(b1-4)GlcNAc
# Method in brief: as §1
# [8] = molecular target: Gal(b1-4)GlcNAc(b1-3)Gal(b1-4)GlcNAc(b1-3)Gal(b1-4)GlcNAc(b1-3)Gal(b1-4)GlcNAc(b1-3)Gal(b1-4)GlcNAc(b1-2)Man(a1-3)[Gal(b1-4)GlcNAc(b1-3)Gal(b1-4)GlcNAc(b1-3)Gal(b1-4)GlcNAc(b1-3)Gal(b1-4)GlcNAc(b1-3)Gal(b1-4)GlcNAc(b1-2)Man(a1-6)]Man(b1-4)GlcNAc(b1-4)[Fuc(a1-6)]GlcNAc
# Method in brief: as §1
# [9] = molecular target: Gal(b1-4)GlcNAc(b1-3)Gal(b1-4)GlcNAc(b1-3)Gal(b1-4)GlcNAc(b1-3)Gal(b1-4)GlcNAc(b1-3)Gal(b1-4)GlcNAc(b1-2)[Gal(b1-4)GlcNAc(b1-3)Gal(b1-4)GlcNAc(b1-3)Gal(b1-4)GlcNAc(b1-3)Gal(b1-4)GlcNAc(b1-3)Gal(b1-4)GlcNAc(b1-6)]Man(a1-6)[Gal(b1-4)GlcNAc(b1-3)Gal(b1-4)GlcNAc(b1-3)Gal(b1-4)GlcNAc(b1-3)Gal(b1-4)GlcNAc(b1-3)Gal(b1-4)GlcNAc(b1-2)Man(a1-3)]Man(b1-4)GlcNAc(b1-4)[Fuc(a1-6)]GlcNAc
# Method in brief: as §1
# [10] = molecular target: Gal(b1-4)GlcNAc(b1-3)Gal(b1-4)GlcNAc(b1-3)Gal(b1-4)GlcNAc(b1-3)Gal(b1-4)GlcNAc(b1-3)Gal(b1-4)GlcNAc(b1-3)Gal(b1-4)GlcNAc(b1-2)Man(a1-3)[Gal(b1-4)GlcNAc(b1-3)Gal(b1-4)GlcNAc(b1-3)Gal(b1-4)GlcNAc(b1-3)Gal(b1-4)GlcNAc(b1-3)Gal(b1-4)GlcNAc(b1-3)Gal(b1-4)GlcNAc(b1-2)Man(a1-6)]Man(b1-4)GlcNAc(b1-4)GlcNAc
# Method in brief: as §1
# [11] = molecular target: Gal(b1-4)GlcNAc(b1-3)Gal(b1-4)GlcNAc(b1-3)GalNAc
# Method in brief: as §1
# [12] = molecular target: Gal(b1-4)GlcNAc(b1-3)Gal(b1-4)GlcNAc(b1-3)[Gal(b1-4)GlcNAc(b1-3)Gal(b1-4)GlcNAc(b1-6)]GalNAc
# Method in brief: as §1
# [13] = molecular target: Gal(b1-4)GlcNAc(b1-3)Gal(b1-4)GlcNAc(b1-6)[Gal(b1-3)]GalNAc
# Method in brief: as §1
# [14] = molecular target: Gal(b1-4)GlcNAc(b1-3)Gal(b1-4)[Fuc(a1-3)]GlcNAc(b1-3)Gal(b1-4)[Fuc(a1-3)]GlcNAc
# Method in brief: as §1
# [15] = molecular target: Gal(b1-4)GlcNAc(b1-3)GalNAc
# Method in brief: as §1
# [16] = molecular target: Gal(b1-4)GlcNAc(b1-3)[Fuc(a1-3)GlcNAc(b1-6)]Gal(b1-4)Glc
# Method in brief: as §1
# [17] = molecular target: Gal(b1-4)GlcNAc(b1-3)[Gal(b1-4)GlcNAc(b1-6)]Gal(b1-4)GlcNAc
# Method in brief: as §1
# [18] = molecular target: Gal(b1-4)GlcNAc(b1-3)[GlcNAc(b1-6)]Gal(b1-4)GlcNAc
# Method in brief: as §1
# [19] = molecular target: Gal(b1-4)GlcNAc(b1-6)Gal(b1-4)GlcNAc
# Method in brief: as §1
binder,measurement,setting,value
Clone730PsrP (Streptococcus pneumoniae) (protein) MDHHHHHHHHHHASENLYFQGAMVVGSQTAAATEATAKKVEEDRKKPASDYVASVTNVNLQSYAKRRKRSVDSIEQLLASIKNAAVFSGNTIVNGAPAINASLNIAKSETKVYTGEGVDSVYRVPIYYKLKVTNDGSKLTFTYTVTYVNPKTNDLGNISSMRPGYSIYNSGTSTQTMLTLGSDLGKPSGVKNYITDKNGRQVLSYNTSTMTTQGSGYTWGNGAQMNGFFAKKGYGLTSSWTVPITGTDTSFTFTPYAARTDRIGINYFNGGGKVVESSTT,glycan array binding signal (z-score),[1],-0.204
same,glycan array binding signal (z-score),[2],-0.406
same,glycan array binding signal (z-score),[3],-0.199
same,glycan array binding signal (z-score),[4],-0.082
same,glycan array binding signal (z-score),[5],-0.254
same,glycan array binding signal (z-score),[6],-0.336
same,glycan array binding signal (z-score),[7],-0.234
same,glycan array binding signal (z-score),[8],-0.04
same,glycan array binding signal (z-score),[9],-0.089
same,glycan array binding signal (z-score),[10],-0.513
same,glycan array binding signal (z-score),[11],-0.022
same,glycan array binding signal (z-score),[12],0.086
same,glycan array binding signal (z-score),[13],-0.341
same,glycan array binding signal (z-score),[14],-0.503
same,glycan array binding signal (z-score),[15],-0.48
same,glycan array binding signal (z-score),[16],-0.083
same,glycan array binding signal (z-score),[17],-0.386
same,glycan array binding signal (z-score),[18],-0.486
same,glycan array binding signal (z-score),[19],0.605
